{"source": "PubChem BioAssay AID624296", "about": "(National Center for Advancing Translational Sciences (NCATS), 2012)", "note": "About 9,900 (2.8%) of roughly 350,000 compounds were called active. Inconclusive means that the source gave no clear call. Such entries were picked first, then a sample of the others. Calls follow the shape of the dose curve; as a rule, active = well fitted activation curve with a large enough effect; inconclusive = small, poorly fitted or top-dose-only effect; inactive = no such curve, though single readings can be large or run the other way. No potency is given beside an inconclusive call; the fits are too rough. Potency is read from the fitted curve at half-maximal effect; tags tell the direction and shape of the fitted curve."}
{"experiment": "A quantitative high throughput screen for small molecules that induce DNA re-replication in MCF 10a normal breast cells; also: nearly all actives have a fitted effect of over 50% in size; as to activity, positive = re-replication: % of control where 0% means no effect.", "settings": "MCF 10A DNA re-replication, Hoechst nuclear intensity, 48 h; activity, positive = re-replication: at 46.1 µM (top of the series)"}
{"smiles": "COc1ccc(CSc2nc(C)cc(=O)[nH]2)cc1Br", "activity, positive = re-replication": "inactive: 3.96%"}
{"smiles": "C=CCC(CC=C)(NC(=O)c1ccccc1C)c1ccccc1", "activity, positive = re-replication": "inactive: -3.17%"}
{"smiles": "O=c1cc(-c2ccccc2)[nH]n1-c1ccc([N+](=O)[O-])cc1", "Potency": "active: 14.6 µM"}
{"smiles": "Cc1nn2c3ccccc3n(CCN3CCCCC3)c2nc1=O", "activity, positive = re-replication": "inactive: -2.5%"}
{"smiles": "COc1ccccc1-c1nnc2sc(COc3ccc(Cl)cc3Cl)nn12", "Potency": "inconclusive [activator, partial curve, poor fit]"}
{"smiles": "CN(Cc1cccnc1)C(=O)Cc1ccc(NS(=O)(=O)c2cccc(C(F)(F)F)c2)cc1", "Potency": "inconclusive [activator, single point]"}
{"smiles": "O=C(Nc1cc(Cl)ccc1-n1cncn1)c1ccc([N+](=O)[O-])o1", "Potency": "inconclusive [activator, partial curve, poor fit]"}
{"smiles": "CC(C)CNS(=O)(=O)c1ccc(CCC(=O)NC2CCCC2)cc1", "Potency": "active: 1.03 µM"}
{"smiles": "CC(=O)c1ccc(N2CCN(C(=O)C3CCN(S(=O)(=O)c4cccs4)CC3)CC2)cc1", "Potency": "inconclusive [activator, single point]"}
{"smiles": "Cc1c(C(=O)NC2CCC(C)CC2)oc2ccccc12", "note": "(configuration not stated)", "activity, positive = re-replication": "inactive: 4.15%"}
{"smiles": "Cc1cn(C2OC(COC(=O)c3ccccc3)C(OC(=O)c3ccccc3)C2OC(=O)c2ccccc2)c(=O)[nH]c1=O", "note": "(configuration not stated)", "Potency": "inconclusive [activator, single point]"}
{"smiles": "CC(C)=CC(=O)Nc1ccccc1C(N)=O", "Potency": "inconclusive [activator, partial curve, poor fit]"}
{"smiles": "CCN1CCN(Cc2ccc(NC(=O)c3cc(NC(=O)c4ccc5n[nH]nc5c4)cc(OC)c3)cc2C(F)(F)F)CC1", "activity, positive = re-replication": "inactive: 7.24%"}
{"smiles": "CCOC(=O)c1[nH]c(C)c(C(=O)OCc2ccc(C)cc2)c1C", "Potency": "inconclusive [activator, partial curve, poor fit]"}
{"smiles": "COc1ccc(Br)cc1/C=N/NC(=O)c1ccco1", "activity, positive = re-replication": "inactive: -2.18%"}
{"smiles": "CCc1cccc(NS(=O)(=O)c2ccc3c(c2)N(C)CCO3)c1", "activity, positive = re-replication": "inactive: 11.9%"}
{"smiles": "CNC(=O)c1[nH]cnc1C(=O)Nc1ccccc1", "activity, positive = re-replication": "inactive: 9.53%"}
{"smiles": "O=C(c1ccc2c(c1)N(Cc1ccc(F)cc1)C(=O)c1ccccc1S2(=O)=O)N1CCN(c2ccccn2)CC1", "Potency": "inconclusive [activator, partial curve]"}
{"smiles": "CC(=O)c1ccc(NC(=S)NCC(c2ccco2)N2CCCC2)cc1", "note": "(configuration not stated)", "Potency": "inconclusive [activator, single point]"}
{"smiles": "CC(=O)c1cccc(S(=O)(=O)N2CCn3cccc3C2C)c1", "note": "(configuration not stated)", "activity, positive = re-replication": "inactive: -11%"}
{"smiles": "O=C(O)c1cccc(-n2c(/C=C/c3ccc([N+](=O)[O-])cc3)nc3ccccc3c2=O)c1", "Potency": "inconclusive [activator, single point]"}
{"smiles": "Cc1c(O)ccc(/C=N/Nc2nc(-c3cccnc3)nc3ccccc23)c1O", "Potency": "inconclusive [activator, single point]"}
{"smiles": "COc1cccc(N(C(=O)c2ccco2)C(C(=O)NC2CCCC2)c2ccc(N3CCOCC3)cc2)c1", "note": "(configuration not stated)", "Potency": "inconclusive [activator, partial curve, poor fit]"}
{"smiles": "CN(C)S(=O)(=O)c1cccc(C(=O)Nc2ccc(N3CCOCC3)cc2)c1", "activity, positive = re-replication": "inactive: 14.7%"}
{"smiles": "Cc1nc(C)c(CC(=O)N2CCc3c([nH]c4ccccc34)C2c2ccccn2)s1", "note": "(configuration not stated)", "Potency": "inconclusive [activator, full curve, poor fit]"}
{"smiles": "Cc1ccc(Cl)cc1N(C)C(=O)Cn1ncc2c([nH]c3ccccc32)c1=O", "Potency": "inconclusive [activator, full curve, poor fit]"}
{"smiles": "N#CC1(NC(=O)COC(=O)c2cc(O)c3ccccc3c2O)CCCCC1", "Potency": "inconclusive [activator, single point]"}
{"smiles": "CCN1CCN(c2ccc(NC(=O)c3ccc4c(c3)OCCO4)cc2C)CC1", "activity, positive = re-replication": "inactive: -11.1%"}
{"smiles": "COc1ccccc1CNC(=O)c1ccoc1C", "activity, positive = re-replication": "inactive: -4.8%"}
{"smiles": "O=C(CC(Nc1ccccc1Cl)C(=O)O)c1ccccc1", "note": "(configuration not stated)", "Potency": "inconclusive [activator, single point]"}
{"smiles": "COc1ccc(C2CC(=O)Oc3cc(C)c(Cl)c(C)c32)cc1", "note": "(configuration not stated)", "Potency": "active: 18.4 µM"}
{"smiles": "O=C(CCN1C(=O)c2ccccc2C1=O)N1CCN(C(=O)c2ccccc2)CC1", "Potency": "inconclusive [activator, single point]"}
{"smiles": "CCOc1ncccc1C(=O)OCC(=O)Nc1ncc(C(F)(F)F)cc1Cl", "Potency": "inconclusive [activator, partial curve, poor fit]"}
{"smiles": "Cn1c(=O)c2ccccc2n2c(CCl)nnc12", "Potency": "inconclusive [activator, single point]"}
{"smiles": "CCN1CCN(CC(=O)Nc2cc(S(=O)(=O)N3CCCCC3)ccc2Cl)CC1", "Potency": "inconclusive [activator, single point]"}
{"smiles": "CCOc1cc(NC(=O)c2cccs2)c(OCC)cc1NC(=O)c1ccccn1", "Potency": "active: 8.2 µM"}
{"smiles": "NC(=S)Nc1cccc2cn[nH]c12", "activity, positive = re-replication": "inactive: 1.13%"}
{"smiles": "Cc1ccc(N(CC(=O)Nc2cc(C)cc(C)c2)S(=O)(=O)c2c(C)noc2C)cc1", "Potency": "inconclusive [activator, partial curve, poor fit]"}
{"smiles": "CC1C/C(=C\\c2ccccc2[N+](=O)[O-])c2nc3ccccc3c(C(=O)O)c2C1", "note": "(configuration not stated)", "Potency": "inconclusive [activator, single point]"}
{"smiles": "O=C(CSc1nc(-c2ccccc2)nc2c1Cc1ccccc1O2)Nc1ccc(C(=O)O)cc1", "Potency": "inconclusive [activator, single point]"}
{"smiles": "C(=C\\c1nc(N2CCCC2)c2ccccc2n1)/c1ccccc1", "Potency": "inconclusive [activator, single point]"}
{"smiles": "COc1cc2cc(CN(CCc3ccccc3C)C(=S)NCCCN3CCOCC3)c(=O)[nH]c2cc1OC", "Potency": "inconclusive [activator, single point]"}
{"smiles": "Cc1c(NC(=O)c2cc3c(s2)-c2ccccc2OC3)cccc1[N+](=O)[O-]", "Potency": "inconclusive [activator, partial curve, poor fit]"}
{"smiles": "CCOC(=O)Cc1sc(N)nc1C", "Potency": "inconclusive [activator, single point]"}
{"smiles": "O=C(CC1C(=O)NCCN1Cc1ccccc1C(F)(F)F)NC1CCC1", "note": "(configuration not stated)", "Potency": "inconclusive [activator, full curve, poor fit]"}
{"smiles": "Cc1ccc(N2CC(C(=O)N3CCC(C(=O)Nc4cccc(Br)c4)CC3)CC2=O)cc1", "note": "(configuration not stated)", "Potency": "inconclusive [activator, single point]"}
{"smiles": "CS(=O)(=O)N1CCC(C(=O)NCCN2CCN(Cc3ccccc3)CC2)CC1", "activity, positive = re-replication": "inactive: 6.89%"}
{"smiles": "Cc1c(C(=O)O)cccc1-n1c(C)cc(/C=N/NC(=O)c2cc3ccccc3o2)c1C", "Potency": "inconclusive [activator, single point]"}
{"smiles": "Cc1ccc(C(=O)NNC(=O)c2ccccc2O)cc1S(=O)(=O)N1CCCCC1", "Potency": "inconclusive [activator, partial curve, poor fit]"}
{"smiles": "COCCNC(C)C(=O)C12CC3CC(CC(C3)C1)C2", "note": "(configuration not stated)", "Potency": "inconclusive [activator, partial curve, poor fit]"}
{"smiles": "CCC(C)(C)C1CCC2(CC1)NC(=O)N(CC(=O)N(C)Cc1ccc3c(c1)OCCO3)C2=O", "note": "(configuration not stated)", "Potency": "inconclusive [activator, single point]"}
{"smiles": "O=C(c1ccc2c3c(cccc13)CC2)C1CCCN(Cc2ccccn2)C1", "note": "(configuration not stated)", "Potency": "inconclusive [activator, partial curve, poor fit]"}
{"smiles": "COc1ccc([C@H]2CC(=O)C=C(c3cc(C=O)ccc3OC)C2)cc1", "Potency": "inconclusive [activator, single point]"}
{"smiles": "COc1cc(Cl)c(NC2=CC(=O)C(=O)c3ccccc32)c(OC)c1", "Potency": "active: 3.26 µM"}
{"smiles": "CCOc1ccc2nc(NC(=O)CS(=O)(=O)c3ccc(C)cc3)sc2c1", "Potency": "inconclusive [activator, partial curve, poor fit]"}
{"smiles": "Fc1ccc(COc2ccc(Br)cc2CNCC2CCCO2)cc1", "note": "(configuration not stated)", "Potency": "inconclusive [activator, single point]"}
{"smiles": "O=c1cc(CSc2nc3ccccc3c(=O)[nH]2)c2ccc(O)cc2o1", "Potency": "inconclusive [activator, full curve, poor fit]"}
{"smiles": "CC1(c2ccc(Cl)cc2Cl)NC(=O)N(CC(=O)NC2CCCCC2)C1=O", "note": "(configuration not stated)", "Potency": "inconclusive [activator, single point]"}
{"smiles": "CCCn1nc(NC(=O)c2cccs2)c2cc3ccccc3nc21", "Potency": "active: 5.8 µM"}
{"smiles": "CC1(C)CC(=O)C2=C(C1)NC1=C(C(=O)c3ccccc31)C2c1ccc(O)cc1", "note": "(configuration not stated)", "activity, positive = re-replication": "inactive: -1%"}
{"smiles": "COc1ccccc1N1C(=O)CC(Sc2n[nH]c(-c3cccc(C)c3)n2)C1=O", "note": "(configuration not stated)", "Potency": "inconclusive [activator, single point]"}
{"smiles": "Cc1cccc(CSc2nnc3c(n2)[nH]c2ccccc23)c1", "Potency": "inconclusive [activator, single point]"}
{"smiles": "CCCCn1c(N)c(N(CCOC)C(=O)c2cc(S(=O)(=O)N3CCOCC3)ccc2Cl)c(=O)[nH]c1=O", "activity, positive = re-replication": "inactive: 6.86%"}
{"smiles": "O=c1oc(-c2cccs2)nc2sc3c(c12)CCCCC3", "Potency": "inconclusive [activator, single point]"}
{"smiles": "c1ccc(CCCN2CCN(c3ccccc3)CC2)cc1", "Potency": "inconclusive [activator, partial curve, poor fit]"}
{"smiles": "COc1ccc(CNS(=O)(=O)c2ccc(Br)s2)cc1", "activity, positive = re-replication": "inactive: 5.48%"}
{"smiles": "Nc1cccc2c1C(=O)N(C(=O)/C=C/c1ccc(F)cc1)C2=O", "Potency": "inconclusive [activator, single point]"}
